From the supplement of paper PMC4967469
A lower IC50 marks a more sensitive line; where the fit passes the top or lowest dose, that dose stands as a limit. The AUC spans the tested range (256-fold, ending at the top dose) of the same fit; it is 1 without any effect and falls as sensitivity rises. Where the top dose is marked as inferred, it comes from the curve model; the source does not state it.

Compound: CCOc1cc2ncc(C#N)c(Nc3ccc(F)c(Cl)c3)c2cc1NC(=O)/C=C/CN(C)C [EKB-569]
Assay: Viability of human cancer cell lines after 72 h of drug (GDSC screen)
Conditions: top dose inferred
Description: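 Human cancer cell lines in 384-well plates, medium with 10% serum, drug for 72 h over a 256-fold dose range (nine 2-fold or five 4-fold steps up to the top dose). Adherent lines were fixed and stained with the nucleic acid dye Syto60, suspension lines read with resazurin; signal relative to control wells, capped at 0 and 100%. One two-parameter sigmoid per drug and line, fitted in a mixed model over all curves with the slope shared within a line.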

Cell Line	AUC	IC50 [nM]
OV-7 (ovary, adherent, top dose 2.5 µM)	0.934	> 2500
SK-GT-4 (oesophagus, adherent, top dose 2.5 µM)	0.901	> 2500
JM1 (B-cell lymphoma, suspension, top dose 2.5 µM)	0.902	2450
KINGS-1 (glioma, adherent, top dose 2.5 µM)	0.964	> 2500
LN-405 (glioma, adherent, top dose 2.5 µM)	0.973	> 2500
JHOS-2 (ovary, adherent, top dose 2.5 µM)	0.928	> 2500
AM-38 (glioma, semi-adherent, top dose 2.5 µM)	0.881	> 2500
NCI-H1876 (small cell lung carcinoma, adherent, top dose 2.5 µM)	0.954	> 2500
OCI-AML3 (acute myeloid leukaemia, suspension, top dose 2.5 µM)	0.743	686
RT-112 (bladder, adherent, top dose 2.5 µM)	0.984	> 2500
EFO-21 (ovary, adherent, top dose 2.5 µM)	0.773	1430
KM-H2 (Hodgkin lymphoma, suspension, top dose 2.5 µM)	0.955	> 2500
A388 (skin, adherent, top dose 2.5 µM)	0.829	1890
KYSE-270 (oesophagus, adherent, top dose 2.5 µM)	0.869	1760
DMS-79 (small cell lung carcinoma, suspension, top dose 2.5 µM)	0.987	> 2500
KALS-1 (glioma, adherent, top dose 2.5 µM)	0.941	> 2500
ES8 (Ewing sarcoma, adherent, top dose 2.5 µM)	0.912	> 2500
M059J (glioma, adherent, top dose 2.5 µM)	0.98	> 2500
8505C (thyroid, adherent, top dose 2.5 µM)	0.93	> 2500
22RV1 (prostate, adherent, top dose 2.5 µM)	0.972	> 2500
HuO-3N1 (osteosarcoma, adherent, top dose 2.5 µM)	0.982	> 2500
RERF-LC-KJ (lung adenocarcinoma, adherent, top dose 2.5 µM)	0.954	> 2500
RH-41 (rhabdomyosarcoma, adherent, top dose 2.5 µM)	0.983	> 2500
HuCCT1 (biliary tract, adherent, top dose 2.5 µM)	0.863	> 2500
SNU-182 (liver, adherent, top dose 2.5 µM)	0.861	2260
MG-63 (osteosarcoma, adherent, top dose 2.5 µM)	0.984	> 2500
VCaP (prostate, adherent, top dose 2.5 µM)	0.956	> 2500

Cell Line	AUC	IC50 [nM]
BEN (non-small cell lung carcinoma, adherent, top dose 2.5 µM)	0.983	> 2500
LoVo (large intestine, adherent, top dose 2.5 µM)	0.935	> 2500
NB5 (neuroblastoma, adherent, top dose 2.5 µM)	0.851	1960
HOS (osteosarcoma, adherent, top dose 2.5 µM)	0.988	> 2500
OE21 (oesophagus, adherent, top dose 2.5 µM)	0.959	> 2500
EW-13 (Ewing sarcoma, suspension, top dose 2.5 µM)	0.78	1140
WM793B (melanoma, adherent, top dose 2.5 µM)	0.877	> 2500
SW982 (soft tissue, adherent, top dose 2.5 µM)	0.906	> 2500
OCUM-1 (stomach, adherent, top dose 2.5 µM)	0.981	> 2500
PFSK-1 (medulloblastoma, adherent, top dose 2.5 µM)	0.926	> 2500
NCI-H1623 (lung adenocarcinoma, adherent, top dose 2.5 µM)	0.955	> 2500
SW48 (large intestine, adherent, top dose 20 µM)	0.881	> 20000
RKN (ovary, adherent, top dose 2.5 µM)	0.707	621
42-MG-BA (glioma, adherent, top dose 2.5 µM)	0.97	> 2500
CAL-29 (bladder, adherent, top dose 2.5 µM)	0.821	1590
SF268 (glioma, adherent, top dose 2.5 µM)	0.946	> 2500
SW684 (fibrosarcoma, adherent, top dose 2.5 µM)	0.98	> 2500
P32-ISH (Burkitt lymphoma, suspension, top dose 2.5 µM)	0.807	919
JiyoyeP-2003 (Burkitt lymphoma, suspension, top dose 2.5 µM)	0.991	> 2500
IA-LM (large cell lung carcinoma, adherent, top dose 2.5 µM)	0.956	> 2500
NCI-H2342 (lung adenocarcinoma, adherent, top dose 2.5 µM)	0.969	> 2500
OMC-1 (cervix, adherent, top dose 2.5 µM)	0.85	2040
EFM-192A (breast, adherent, top dose 2.5 µM)	0.966	> 2500
MS-1 (small cell lung carcinoma, suspension, top dose 2.5 µM)	0.913	> 2500
HCC70 (breast, adherent, top dose 2.5 µM)	0.976	> 2500
BxPC-3 (pancreas, adherent, top dose 2.5 µM)	0.963	> 2500
SNU-81 (large intestine, adherent, top dose 2.5 µM)	0.875	> 2500

Cell Line	AUC	IC50 [nM]
G-361 (melanoma, adherent, top dose 2.5 µM)	0.896	> 2500
SIG-M5 (acute myeloid leukaemia, suspension, top dose 2.5 µM)	0.495	152
NCI-H1092 (small cell lung carcinoma, suspension, top dose 2.5 µM)	0.977	> 2500
SNU-387 (liver, adherent, top dose 2.5 µM)	0.931	> 2500
WIL2-NS (lymphoid neoplasm, suspension, top dose 2.5 µM)	0.829	1180
KP-3 (pancreas, adherent, top dose 2.5 µM)	0.772	1150
H290 (mesothelioma, adherent, top dose 2.5 µM)	0.978	> 2500
FU97 (stomach, adherent, top dose 2.5 µM)	0.958	> 2500
SW1271 (small cell lung carcinoma, adherent, top dose 2.5 µM)	0.893	> 2500
OCI-AML5 (acute myeloid leukaemia, suspension, top dose 2.5 µM)	0.794	1040
SK-OV-3 (ovary, adherent, top dose 2.5 µM)	0.764	1130
HCC1806 (breast, adherent, top dose 2.5 µM)	0.829	1380
LU-165 (small cell lung carcinoma, suspension, top dose 2.5 µM)	0.988	> 2500
KARPAS-620 (haematopoietic neoplasm, suspension, top dose 2.5 µM)	0.755	742
NCI-H209 (small cell lung carcinoma, suspension, top dose 2.5 µM)	0.842	1950
COR-L321 (lung, suspension, top dose 2.5 µM)	0.961	> 2500
KARPAS-45 (lymphoblastic leukaemia, suspension, top dose 20 µM)	0.212	216
H4 (glioma, adherent, top dose 2.5 µM)	0.914	> 2500
NCI-H64 (small cell lung carcinoma, suspension, top dose 2.5 µM)	0.975	> 2500
LU-135 (small cell lung carcinoma, suspension, top dose 2.5 µM)	0.912	> 2500
CCRF-CEM (lymphoblastic leukaemia, suspension, top dose 2.5 µM)	0.659	398
NB17 (neuroblastoma, adherent, top dose 2.5 µM)	0.934	> 2500
L-428 (Hodgkin lymphoma, suspension, top dose 2.5 µM)	0.954	> 2500
BICR10 (head and neck, adherent, top dose 2.5 µM)	0.958	> 2500
MOLT-4 (lymphoblastic leukaemia, suspension, top dose 20 µM)	0.315	425
CADO-ES1 (Ewing sarcoma, suspension, top dose 2.5 µM)	0.874	> 2500
